Assay results as given in PubChem BioAssay AID1508623 (National Center for Advancing Translational Sciences (NCATS), 2021).
In all, about 48,000 compounds went through this assay and about 450 (0.94%) were called active. Roughly 19% stayed inconclusive and do not appear here. Calls follow the shape of the dose curve; as a rule, active = well fitted inhibition curve with a large enough effect; inconclusive = small, poorly fitted or top-dose-only effect; inactive = no such curve, though single readings can be large or run the other way. This is one part of the list.

Test: Primary qHTS for Identification of Small Molecule Inhibitors of Huntingtin Promoter Activity; also: nearly all actives have a fitted effect of over 50% in size
Conditions: HEK293 HTT promoter firefly luciferase reporter (activity 0% = vehicle and -100% = no light), 24 h; series mostly up to 57.5 µM; activity change, negative = inhibition: at the top concentration
Procedure, shortened: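 Quantitative HTS used concentration series of up to 57.5 uM final on HEK293 luciferase reporter cells, 24 h at 37 degrees C. Readout was Dual-Glo firefly luminescence.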
Potency is read from the fitted curve at half-maximal effect.

Structure (SMILES)	activity change, negative = inhibition	Potency
COc1ccc(Cl)cc1NC(=O)c1sc2nc3n(c(=O)c2c1C)CCC3	inactive: -0.786%	–
CCOc1ccc(CCNS(=O)(=O)c2cc(Br)cc3c2N(C(C)=O)CC3)cc1OCC	inactive: -9.98%	–
Cc1cc(C)n(-c2nc3ccccc3nc2Nc2cccc(C)c2C)n1	inactive: -4.01%	–
COc1cc(Oc2ccnc3cc(OC)c(OC)cc23)ccc1NC(=O)NC(C)c1nccs1 (stereo unspecified)	inactive: -13.5%	–
CCN(CC)C(=O)Cn1c(=O)n(Cc2ccc(C(=O)NCCc3ccc(OC)c(OC)c3)cc2)c(=O)c2ccccc21	inactive: 2.97%	–
Cc1ccc(-n2ncc(C(=O)NCc3ccco3)c2C2CCN(C(=O)OC(C)(C)C)CC2)c(C)c1	inactive: -34.9%	–
CC(=O)c1ccc(N2C(=O)N(CC(=O)c3ccc(F)cc3)c3ccccc3S2(=O)=O)cc1	inactive: -17%	–
COc1ccc(S(=O)(=O)NCCc2csc(-c3ccc(F)cc3)n2)cc1F	inactive: -14.5%	–
CCCCN(CCCNC(=O)c1cc(Nc2ccc(OC)c(OC)c2)nc2ccccc12)Cc1ccccc1	inactive: -2.39%	–
CCOC(=O)C1=C(C)N=C2SCCC(=O)N2C1c1ccc(OCc2ccccc2)cc1 (stereo unspecified)	inactive: -28.5%	–
COc1cccc(C(=O)Nc2cccc(-c3cn4c(C)csc4n3)c2)c1OC	inactive: 10.3%	–
O=C(Nc1cccc(Cl)c1)c1cc2c(=O)[nH]c3ccccc3c2s1	inactive: -2.71%	–
Cc1cccc(-c2nc3c4ccccc4nc(N4CCN(c5cc(C)ccc5C)CC4)n3n2)c1	inactive: -2.17%	–
CC1(C)CCC2=C(O1)c1ccccc1C(=O)C2=O	inactive: -16.3%	–
O=C(Nc1ccc(-c2cn3cccnc3n2)cc1)c1cc(Br)ccc1Cl	inactive: -1.64%	–
Cc1nnc(N2CCCC(C(=O)NCCc3ccc(Cl)cc3)C2)c2nn(-c3ccccc3)c(C)c12 (stereo unspecified)	inactive: -22.8%	–
CCOc1ccc(-c2nn(CC(=O)NC3CCCC3)c3c2cnc2ccc(F)cc23)cc1	inactive: 40.7%	–
CC(=O)OCC[N+](C)(C)C	inactive: 10.1%	–
CC(C)CCNC(=O)CN1N=C(c2ccc(Cl)cc2)CCC1=O	inactive: -11.8%	–
COc1ccc(CN2C(=O)c3ccccc3C2C(=O)NCCc2ccccc2)c(OC)c1 (stereo unspecified)	inactive: 8.32%	–
CC1=C(C(=O)Nc2ccc(C)cc2C)C(c2cccs2)n2nc(SCc3ccccc3Cl)nc2N1 (stereo unspecified)	inactive: -2.25%	–
C[C@H](c1ccc(F)cc1CCCC(=O)O)N(c1cc(F)ccc1F)S(=O)(=O)c1ccc(Cl)cc1	inactive: -25.3%	–
O=c1cc(-c2ccccc2)n2c(SCc3ccc(F)cc3)nnc2[nH]1	inactive: -8.04%	–
Cc1cn2c(=O)cc(COC(=O)COc3ccccc3C)nc2s1	inactive: -4.96%	–

Structure (SMILES)	activity change, negative = inhibition	Potency
CCN(Cc1ccccc1)C(=O)Cn1c(=O)n(-c2ccc(C)c(C)c2)c(=O)c2c(C)c(C)sc21	inactive: -37.4%	–
O=c1oc2ccccc2cc1-c1cn2cc(Cc3ccc(Cl)cc3)sc2n1	inactive: -15.1%	–
O=C(Nc1cccc(C(F)(F)F)c1)c1cc2ccc3cccnc3c2[nH]1	inactive: -2.78%	–
Cc1ccc(-c2nc(C)c(CCNS(=O)(=O)c3ccc(F)c(C(F)(F)F)c3)s2)cc1	inactive: -15.1%	–
CCn1cc(C(=O)N2CCN(c3ccccc3F)CC2)c(=O)c2cc(S(=O)(=O)N(C)C)ccc21	inactive: -4.31%	–
Cc1ccc(NC(=O)CSc2nc(-c3ccco3)cc(C(F)(F)F)n2)cc1	inactive: -27.9%	–
Cc1ccc(NC(=O)CN2C(=O)CCSc3ccc(S(=O)(=O)N4CCCC4)cc32)cc1C	inactive: -29.7%	–
Cc1ccc(C)c(OC(=O)CSc2nnc(CNC(=O)c3ccccc3)o2)c1	inactive: 2.49%	–
Cc1cc2oc(C(=O)Nc3ccc(S(=O)(=O)N4CCCCCC4)cc3)cc(=O)c2cc1C	inactive: -17%	–
CCN(CC)c1ccc(NS(=O)(=O)c2cc3[nH]c(=O)c(=O)[nH]c3cc2C)c(C)c1	inactive: 6.72%	–
CC(C)c1ccc(OC(=O)c2cc(-c3ccccc3)on2)cc1	inactive: 1.42%	–
CCN(CC)c1ccc(NC(=O)CSc2nc(-c3cccs3)cc(C(F)(F)F)n2)cc1	inactive: 5.04%	–
Cc1ccc(NC(=O)Nc2nnc(N(C)Cc3ccccc3)s2)c(C)c1	inactive: -1.93%	–
CC(=O)N1CCc2c(sc3nc(SCC(C)C)n(-c4ccc(F)c(Cl)c4)c(=O)c23)C1	inactive: -16.4%	–
CCCSc1ncc(Cl)c(C(=O)Nc2c(C(=O)Nc3ccc(C)cc3)oc3ccccc23)n1	inactive: -9.63%	–
COC(=O)c1ccc(C2C(C(=O)Nc3ccccc3)=C(C)Nc3nc4ccccc4n32)cc1 (stereo unspecified)	inactive: 1.65%	–
CCc1nc(Oc2cccc(F)c2)c2oc3ccccc3c2n1	inactive: -4.51%	–
CCN(CC)c1ccc(-c2nc(-c3ccccc3C)no2)cc1[N+](=O)[O-]	inactive: -17.7%	–
Cc1ccc(Nc2nc(C)nc(N)c2S(=O)(=O)c2ccccc2)cc1	inactive: -6.65%	–
CC1=C(C(=O)Nc2ccccc2)C(c2cccn2C)n2ncnc2N1 (stereo unspecified)	inactive: -5.61%	–
COc1ccc(Cn2c(=O)c3oc4ccccc4c3n(CC(=O)Nc3ccc(F)cc3F)c2=O)cc1	inactive: 5.36%	–
Cc1ccc(Cl)cc1N1CCN(Cc2nnc(-c3ccc4c(c3)OCO4)o2)CC1	inactive: -32.2%	–
Cc1cc(NC(=O)C2CCN(S(=O)(=O)c3ccc(Br)s3)CC2)ccc1Br	inactive: -2.73%	–
Cc1ccc(CNC(=O)CSc2n[nH]c(-c3ccc(F)cc3)n2)cc1	inactive: -27.8%	–

Structure (SMILES)	activity change, negative = inhibition	Potency
O=S(=O)(c1ccc2nc(N3CCN(c4cccc(Cl)c4)CC3)ccc2c1)N1CCCCC1	inactive: -10.6%	–
Cc1ccc2c(=O)cc(C(=O)Nc3sc4c(c3C(=O)NCc3cccnc3)CCCC4)oc2c1C	inactive: -3.92%	–
Fc1ccc(-c2noc3ncnc(NCCCN4CCN(c5ccccc5)CC4)c23)cc1	inactive: -15.6%	–
O=c1oc2c(CN3CCN(CCO)CC3)c(O)ccc2cc1-c1ccccc1	inactive: -18.3%	–
COc1cccc(NC(=O)CC2NCCNC2=O)c1 (stereo unspecified)	inactive: 3.57%	–
COc1ccc(C(=O)NCC(c2ccc(N(C)C)cc2)N2CCc3ccccc32)c(OC)c1 (stereo unspecified)	inactive: -17.2%	–
COc1ccc(S(=O)(=O)NCC(c2ccco2)N2CCOCC2)cc1OC (stereo unspecified)	inactive: 1.97%	–
CCc1cc(C(=O)Nc2cnn(Cc3ccccc3C)c2)no1	inactive: 42.6%	–
Cc1ccc(NC(=O)CCc2c(C)nc3cc(-c4ccccc4)nn3c2C)cc1F	–	active: 2000 nM
COc1ccc(-c2nc3c(C#N)c[nH]n3c2NC2CCCC2)c(OC)c1	inactive: -22.7%	–
CCCCCNC(=O)CCCCCn1c(=O)[nH]c2ccsc2c1=O	inactive: 4.86%	–
COc1ccc(CNC(=O)C2CCN(c3nc4ccccc4[nH]3)CC2)cc1OC	inactive: 2.86%	–
O=C(Nc1sc2c(c1C(=O)NCC1CCCO1)CCC2)c1cc(=O)c2ccccc2o1 (stereo unspecified)	inactive: -20.6%	–
CCOC(=O)c1c(S(=O)(=O)N2CCCC(C(=O)Nc3cccc(C)n3)C2)c(C)n(C)c1C (stereo unspecified)	inactive: -8.33%	–
OCCN1C[C@H](O)[C@@H](O)[C@H](O)[C@H]1CO	inactive: 7.39%	–
CCOc1ccc(C2CC(=O)Nc3c2c(=O)nc(SCc2ccccc2C)n3C)cc1OC (stereo unspecified)	inactive: -17%	–
CCn1cc(C(=O)OCC(=O)Nc2cccc(C(C)=O)c2)c(=O)c2ccc(C)nc21	inactive: -13.3%	–
COc1ccc(Cn2c(=O)c3oc4ccccc4c3n(Cc3ccc(Cl)cc3)c2=O)cc1	inactive: -4.71%	–
CCOC(=O)c1c(C)[nH]c(C)c1S(=O)(=O)N1CCCC(C(=O)N2CCN(c3ccccc3)CC2)C1 (stereo unspecified)	inactive: -11.1%	–
CCOCCc1nn2c(=O)cc(COC(=O)C3CCCCC3)nc2s1	inactive: -3.66%	–
Cc1ccc2c(=O)cc(C(=O)Nc3cccc(C(F)(F)F)c3)oc2c1C	inactive: -0.938% [at 11.5 µM]	–
Cc1cccn2c(=O)c3cc(C(=O)NC(C)c4ccccc4)c(=N)n(CCCO)c3nc12 (stereo unspecified)	inactive: -5.62%	–
Cc1ccc(NC(=O)CSc2nnc3scc(-c4ccccc4)n23)cc1	inactive: -17.4%	–
COC(=O)c1ccc(OCC2c3cc(OC)c(OC)cc3CCN2C(=O)c2ccc(F)cc2)cc1 (stereo unspecified)	inactive: -28.6%	–

Structure (SMILES)	activity change, negative = inhibition	Potency
CCOc1ccc(CN2CCc3nc(Nc4ccc(OC)cc4OC)ncc3C2)cc1	inactive: -19.4%	–
Cc1c(CCOc2ccc(C(=O)O)cc2)c2cc(Cl)ccc2n1C(c1ccccc1)c1ccccc1	inactive: -3.35%	–
COc1ccc2c(c1)c1c(c(=O)n(CCc3ccccc3)c(=O)n1Cc1ccc(F)cc1)n2C	inactive: -19.8%	–
CCN(CC)CCCNC(=O)c1nn(C)c2c1CS(=O)(=O)c1ccccc1-2	inactive: -13.2%	–
Cc1ccccc1Cn1c(CN2CCC(C(=O)NCCc3ccccc3)CC2)cc2ccccc21	inactive: -8.08%	–
CCC(=O)Nc1cccc(C(=O)OCc2cc(=O)n3nc(CC)sc3n2)c1	inactive: 7.67%	–
Cc1ccc2sc(NC(=O)c3ccc4c(c3)OCCO4)nc2c1C	inactive: -5.37%	–
COc1ccc2c(c1)c1c(c(=O)n(-c3ccc(F)c(Cl)c3)c(=O)n1Cc1ccccc1C)n2C	inactive: -2.28%	–
CCN(CC)c1nc2ccccc2nc1C(=O)Nc1cccc(C(C)=O)c1	inactive: -24.5%	–
CCSC1=NC2(CCN(C(=O)NC3CCCCC3)CC2)N=C1c1ccc(Cl)cc1	inactive: -14.1%	–
CCN1C(=O)c2ccccc2Sc2ccc(NC(=O)c3ccc(Cl)cc3)cc21	inactive: -15.2% [at 11.5 µM]	–
Cc1oc2ncn(C)c(=O)c2c1C(=O)N1CCN(c2ccccc2F)CC1	inactive: -12%	–
CCc1nn(Cc2ccc(Cl)cc2)c(=O)c2cc3cc(C)ccc3n12	inactive: -8.28%	–
Cc1cccc(NS(=O)(=O)c2ccc3c(c2)C(C)(C)C(=O)N3C)c1	inactive: -23.3%	–
CS(=O)(=O)N(Cc1ccco1)CC(O)Cn1c2ccccc2c2ccccc21 (stereo unspecified)	inactive: -10.8%	–
CCOC(=O)N1CCc2c(sc(NCc3cc(OC)c(OC)cc3OC)c2C(=O)Nc2ccc(OCC)cc2)C1	inactive: -16.1%	–
CCc1ccc(-n2c(=O)c3cccnc3n2CC(=O)Nc2cc(F)ccc2F)cc1	inactive: -23.5%	–
CCN(CC)C(=O)Cn1cc(SCC(=O)Nc2ccccc2C)c2ccccc21	inactive: -12.1%	–
CCN1CCN(c2ncc3c(n2)CCN(Cc2ccc(OC(C)C)cc2)C3)CC1	inactive: -20.5%	–
Cc1cccc(-c2nc(SCCCOc3ccc(Cl)c(C)c3)n3[nH]c(=O)cc3n2)c1	inactive: -24.8%	–
CC(O)CCCCn1c(=O)c2c(ncn2C)n(C)c1=O (stereo unspecified)	inactive: 1.05%	–
CCOC(=O)c1ccc(-c2ccc(/C=C(\C#N)C(=O)Nc3ccc(OCC)cc3)o2)cc1	inactive: 29.7%	–
COc1ccc(Cl)cc1-n1nnc(-c2nsc(NC(=O)c3ccccc3Cl)n2)c1C	inactive: -8.07%	–
Cc1ccc(NC(=O)C2CCC(CNS(=O)(=O)c3csc(C(N)=O)c3)CC2)cc1Cl (stereo unspecified)	inactive: -23%	–
